Data as given in PubChem BioAssay AID1240 (Sanford-Burnham Center for Chemical Genomics, 2008).
Out of some 50,000 compounds screened, about 800 (1.6%) showed an effect of 50% or more. The list shows a part of the results.

The compounds below were run against Bcl-2-like protein 10 (Homo sapiens) (UniProt Q9HD36) (assay: TR3 peptide-Bcl-B binding displacers, biochemical primary FP assay, phenotype converters (AID 1240;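 also: 0% = Bcl-B with tracer peptide and DMSO and 100% = tracer peptide lacking Bcl-B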)). Conditions: GST-Bcl-B / FITC-TR3 peptide fluorescence polarization; stronger effect = higher value; compound at 3.75 mg/L.
UniProt Q9HD36, sequence (Q9HD36 whole entry, looked up): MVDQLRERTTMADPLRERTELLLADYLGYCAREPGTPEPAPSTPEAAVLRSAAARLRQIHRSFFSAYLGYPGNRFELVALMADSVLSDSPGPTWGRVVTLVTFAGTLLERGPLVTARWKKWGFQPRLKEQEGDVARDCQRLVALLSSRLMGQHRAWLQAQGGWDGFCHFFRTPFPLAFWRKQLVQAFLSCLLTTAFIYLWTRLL
COc1ccccc1/C=N/Nc1cc(N2CCCC2)nc(N2CCCC2)n1 was tested, and the displacement was 33.3%.
In the case of CCn1c(C)nc2c(Cl)c(O)ccc21, the displacement is reported as -4.1%.
Cc1ccc(-n2ncnc2-c2ccccc2Cl)cc1Cl was tested, and the displacement was -0.3%.
With O=C1C=CC(=O)N1c1ccc(OC(F)F)cc1 the displacement was 8%.
Compound O=C1c2ccccc2/C(=N/N=C/C=C/c2ccco2)C1C(=O)C(c1ccccc1)c1ccccc1 (centres undefined) has a displacement of -47.1%.
Compound CC(=O)c1cc2c(cc1[N+](=O)[O-])OCCO2 has a displacement of 13.7%.
O=C1C(=O)N(Cc2cccnc2)C(c2ccc(Cl)cc2)/C1=C(\O)c1ccccc1 (centres undefined) gave a displacement of -11.7%.
Work on O=C(O)CCC(=O)Nc1ccc(Cc2ccc(NC(=O)CCC(=O)O)cc2)cc1 yielded a displacement of 10.8%.
For CCCOc1ccc(CC(CC(=O)O)(C(=O)O)C(=O)O)cc1, the displacement was -9.6%.
O=C(CN1CCOCC1)C12CC3CCC(CC(C3)C1)C2 gave a displacement of 8.2%.
Work on CC1(C)CC2CC(C)(CN2S(=O)(=O)c2ccc(C(=O)Nc3ccccc3N3CCOCC3)cc2)C1 (centres undefined) yielded a displacement of 10.9%.
Work on Cc1ccc(OCC(=O)n2cnnc2N)c(Br)c1 yielded a displacement of 5.4%.
CC1=C(C(=O)Nc2ccc(Cl)cc2)C(c2cccs2)NC(=S)N1 (centres undefined) gave a displacement of -11.4%.
O=C(/C=C/c1ccc(Cl)cc1)Nc1ccc(O)c(-c2nc3ccccc3o2)c1 was tested, and the displacement was 3.4%.
O=S1(=O)CCC(NC(=S)N=Nc2c(O)[nH]c3ccccc23)C1 (centres undefined) was tested, and the displacement was -3.7%.
Compound COc1ccc(C2Nc3ccccc3NC3=C2C(=O)CC(c2ccccc2)C3)cc1Br (centres undefined) has a displacement of 0.6%.
O=C(O)CC(NS(=O)(=O)c1ccc(F)cc1)c1ccccc1 (centres undefined) showed a displacement of 7.6%.
Compound CCOC(=O)C1=C(O)/C(=C/c2ccccc2O)N=C1C has a displacement of -2%.
Compound CC1=C(C)CC(C(=O)Nc2ccc(C(N)=O)cc2)C(C(=O)O)C1 (centres undefined) has a displacement of 9%.
For COC(=O)C1=C(N)OC2=C(C(=O)CC(C)(C)C2)C1c1cccc(C)c1 (centres undefined), the displacement was 4.7%.
O=C(Cc1nnc(NC(=O)c2ccco2)s1)NCc1ccccc1 was tested, and the displacement was -13.8%.
O=C(Nc1ccc(Cl)cc1)N1CCN(c2cccc(Cl)c2)CC1 showed a displacement of -8.7%.
Compound CCOc1ccc2nc(NC(=O)c3cccc(Br)c3)sc2c1 has a displacement of 10.1%.
Compound COc1ccc(OC)c(/C=C/C(=O)Nc2cccc(Br)c2)c1 has a displacement of 12.3%.
Compound CCNC(=O)C(=O)Nc1ccccc1OCC has a displacement of -0.7%.
CCNC(=O)C(=O)Nc1ccc(OCC)cc1 gave a displacement of 7.5%.
In the case of Cc1ccc(S(=O)(=O)c2ccc(C)c(S(=O)(=O)NC3CCCCC3)c2)cc1S(=O)(=O)NC1CCCCC1, the displacement is reported as -4.7%.
Nc1ccc(-c2ccc(S(=O)(=O)c3ccc(-c4ccc(N)cc4)cc3)cc2)cc1 was tested, and the displacement was 9.4%.
For O=C(CSC1=NCCS1)n1c2c(c3ccccc31)CCCC2, the displacement was 31.5%.
CCOc1ccc(NC(=O)c2ccc([N+](=O)[O-])o2)cc1 was tested, and the displacement was -4.8%.
Work on CCC1CCc2c(sc(NC(=O)C3CCCC3)c2C(N)=O)C1 (centres undefined) yielded a displacement of -1.5%.
With O=C(c1ccccc1O)N1N=C(c2ccc(Br)cc2)CC1(O)C(F)(F)F (centres undefined) the displacement was 3%.
O=C(N/N=C/c1cccc([N+](=O)[O-])c1)C(=O)N1CCCCCC1 gave a displacement of -3.3%.
O=C1CC(c2ccccc2)CC2=C1C(c1cccc(Br)c1)Nc1ccccc1N2 (centres undefined) gave a displacement of -5.8%.
Work on Cc1c(OCC(=O)c2ccccc2)ccc2c1oc(=O)c1ccccc12 yielded a displacement of 5.4%.
With CCOCCOC(=O)c1ccc(NC(=O)c2ccc([N+](=O)[O-])cc2)cc1 the displacement was -3.3%.
Work on COc1ccc(-c2cc3c(ccc4ccccc43)oc2=O)cc1 yielded a displacement of -4.2%.
Work on CC(C)(C)c1cc(C(=O)N/N=C/c2ccc(O)cc2O)n(-c2ccccc2)n1 yielded a displacement of 5.9%.
Compound CCOc1ccc(N2C(=O)/C(=C/c3cccc(Br)c3)SC2=S)cc1 has a displacement of -5.5%.
In the case of Cc1c(N=Cc2sc3ccccc3c2O)c(=O)n(-c2ccccc2)n1C, the displacement is reported as -14.2%.
Compound O=C1c2cccnc2C(=O)N1c1ccc(Oc2ccc(N3C(=O)c4cccnc4C3=O)cc2)cc1 has a displacement of 15.7%.
CCOC(=O)Cc1nnc(Nc2ccc(Nc3nnc(CC(=O)OCC)c4ccccc34)cc2)c2ccccc12 was tested, and the displacement was 1.3%.
O=C(c1ccccc1O)N1N=C(c2cccnc2)CC1(O)C(F)(F)F (centres undefined) was tested, and the displacement was -1.6%.
With COc1ccc(-c2nnc(-c3ccc(C)cc3)o2)cc1 the displacement was -10.4%.
With O=C(O)C1CCCCC1C(=O)NCCC(c1ccccc1)c1ccccc1 (centres undefined) the displacement was -10.4%.
COC(=O)/C(=C/c1ccccc1)[N+](=O)[O-] was tested, and the displacement was -0.3%.
In the case of COc1cccc(OCCn2cc(C=C3C(=O)NC(=O)NC3=O)c3ccccc32)c1, the displacement is reported as 15.2%.
COc1ccc(S(=O)(=O)N(CC(=O)Nc2cc(C)ccc2C)c2ccc(C)cc2)cc1OC showed a displacement of 2.9%.
For COc1cc(C(=O)NC(NC(=S)N2CCOCC2)C(Cl)(Cl)Cl)cc(OC)c1OC (centres undefined), the displacement was -11.7%.
COc1ccc(N2C(=O)c3ccccc3NC2c2ccc(OC)cc2OC)cc1 (centres undefined) showed a displacement of 17.4%.
O=C(CSc1nc2ccccc2o1)Nc1ccccc1[N+](=O)[O-] was tested, and the displacement was -7.3%.
Compound COC(=O)C1=NN(C(=O)c2ccc([N+](=O)[O-])cc2)C(O)(c2ccccc2)C1 (centres undefined) has a displacement of -11.9%.
For O=C1CC(N2CCC(O)CC2)C(=O)N1c1ccc(Br)cc1 (centres undefined), the displacement was -8.3%.
CC(=O)/C(=C(/C)O)c1cc(C(C)(C)C)c(O)c(O)c1C(C)(C)C gave a displacement of 3.6%.
